According to the supplement of paper PMC6746778:
Structures can show the parent of a compound that is named as a salt. The list shows a part of the results. Most values come without repeats; read them as rough.

What was measured:
Assay in all cases: proliferation Z-score within cell line (SRB, relative to all inhibitors screened on that line); triple-negative breast cancer lines and a kinase inhibitor library; SRB is the sulforhodamine B protein stain; higher = less growth inhibition (more resistant)
Conditions in all cases: concentration: 1 µM; 4 days
Bt20 = system: Bt20
Bt549 = system: Bt549
HCC1143 = system: HCC1143
HCC1806 = system: HCC1806
HCC1937 = system: HCC1937
HCC38 = system: HCC38
HCC70 = system: HCC70
Hs578T = system: Hs578T
MDA-MB-231 = system: MDA-MB-231
MDA-MB-435s = system: MDA-MB-435s
MDA-MB-436 = system: MDA-MB-436
MDA-MB-453 = system: MDA-MB-453
MDA-MB-468 = system: MDA-MB-468
SKBR7 = system: SKBR7
SUM1315MO2 = system: SUM1315MO2
SUM149PT = system: SUM149PT
SUM159PT = system: SUM159PT
SUM185PE = system: SUM185PE
SUM229PE = system: SUM229PE
SUM52PE = system: SUM52PE
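Note: Single-dose primary screen of a 378-member kinase inhibitor library in 96-well plates, with growth read as absorbance of protein-bound SRB dye after TCA fixation.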

SMILES | proliferation Z-score within cell line (Bt20) | proliferation Z-score within cell line (Bt549) | proliferation Z-score within cell line (HCC1143) | proliferation Z-score within cell line (HCC1806) | proliferation Z-score within cell line (HCC1937) | proliferation Z-score within cell line (HCC38) | proliferation Z-score within cell line (HCC70) | proliferation Z-score within cell line (Hs578T) | proliferation Z-score within cell line (MDA-MB-231) | proliferation Z-score within cell line (MDA-MB-435s) | proliferation Z-score within cell line (MDA-MB-436) | proliferation Z-score within cell line (MDA-MB-453) | proliferation Z-score within cell line (MDA-MB-468) | proliferation Z-score within cell line (SKBR7) | proliferation Z-score within cell line (SUM1315MO2) | proliferation Z-score within cell line (SUM149PT) | proliferation Z-score within cell line (SUM159PT) | proliferation Z-score within cell line (SUM185PE) | proliferation Z-score within cell line (SUM229PE) | proliferation Z-score within cell line (SUM52PE)
Cc1cc(Nc2ncnc3ccc(-c4ccc(CNCCS(C)(=O)=O)o4)cc23)ccc1Oc1ccn2ncnc2c1 [HER2-Inhibitor-1] | 0.956 | 0.724 | 0.836 | 0.909 | 0.813 | 0.684 | 0.828 | 0.813 | 0.825 | 0.954 | 1.19 | 0.932 | 0.934 | 0.832 | 0.931 | 0.961 | 0.732 | 0.889 | 0.691 | 1.26
Cc1ccc(Nc2nccc(N(C)c3ccc4c(C)n(C)nc4c3)n2)cc1S(N)(=O)=O | -0.206 | 0.545 | 0.887 | 0.933 | 0.915 | 0.595 | 0.907 | 0.556 | 0.218 | 0.697 | 0.877 | 1.15 | 0.219 | 0.964 | -1.27 | 0.263 | 0.61 | -0.952 | 0.98 | -1.4
CCNc1nc(Nc2cc(F)c(C(=O)N3CCOCC3)cc2OC)ncc1C(F)(F)F | 0.778 | 0.479 | 0.567 | 0.915 | 0.408 | 0.41 | 0.484 | 0.553 | 0.621 | 0.637 | 0.494 | 0.623 | 0.764 | 0.719 | 0.822 | 0.479 | 0.414 | 0.671 | 0.209 | 0.79
CC1=C(C(=O)Nc2cc3cn[nH]c3cc2F)C(c2ccc(C(F)(F)F)cc2)CC(=O)N1 (stereo not given) | 0.616 | 0.333 | 0.663 | 0.401 | 0.885 | 0.111 | 0.574 | -0.0383 | 0.598 | 0.907 | 0.854 | 0.66 | 0.646 | 0.19 | 0.919 | 0.465 | 0.283 | 1.29 | 0.981 | 1.66
C=CC(=O)Nc1cccc(Sc2nc(Nc3ccc(N4CCN(C)CC4)cc3)ncc2Cl)c1 | -0.563 | 0.359 | 0.428 | -0.143 | 0.39 | 0.166 | 0.464 | 0.665 | 0.361 | 0.393 | 0.145 | 0.394 | -1.02 | 0.631 | 0.15 | -0.581 | 0.0829 | 0.416 | -0.459 | -0.334
FC(F)(F)c1ccc(/C=C/c2nc(COc3ccc(CCCCn4ccnn4)cc3)co2)cc1 [Mubritinib (TAK 165)] | -1.63 | -2.89 | -0.302 | -1.22 | -0.979 | -3.29 | -0.512 | -1.62 | -1.28 | -0.931 | -0.413 | -1.58 | -1.02 | -2.16 | 0.097 | -0.829 | -1.27 | -0.848 | -2.16 | -0.611
C#Cc1cccc(Nc2ncnc3cc(OCCOC)c(OCCOC)cc23)c1 [Erlotinib HCl (OSI-744)] | -0.143 | 0.371 | 0.674 | -1.09 | 0.874 | 0.421 | 0.767 | 0.316 | 0.804 | 0.693 | 0.922 | 0.944 | -0.703 | 1.1 | 0.912 | -0.646 | 0.478 | 0.657 | -0.144 | 1.07
Cc1[nH]c(/C=C2\C(=O)Nc3ccccc32)c(C)c1CCC(=O)O [TSU-68 (SU6668, Orantinib)] | 0.736 | 0.529 | -0.153 | 0.723 | 0.249 | 0.534 | -0.41 | 0.438 | 0.752 | 0.698 | -1.04 | 0.722 | 0.854 | 0.538 | 0.984 | 0.789 | -1.15 | 0.927 | 0.72 | 1.14
NC(=O)c1ccc(N(C(N)=O)c2c(F)cccc2F)nc1-c1ccc(F)cc1F | 0.91 | 0.451 | 0.226 | 0.388 | 0.499 | 0.366 | 0.339 | 0.193 | 0.436 | 0.463 | -0.0746 | 0.302 | 0.859 | -1.1 | 0.961 | 0.0541 | 0.258 | 1.47 | 0.726 | 0.83
CC(C)(C)Cn1c(N)nc2ccc(-c3[nH]c(C(C)(C)C)nc3-c3ccc(F)cc3)nc21 | 0.229 | 0.348 | 0.495 | -0.455 | 0.568 | 0.569 | 0.71 | 0.785 | 0.261 | 0.564 | 0.542 | 0.861 | 0.578 | 0.622 | 0.0848 | 0.381 | 0.705 | 0.554 | 0.39 | 0.333
O=C(c1ccc(Nc2nccc(-c3cc4ccccc4s3)n2)cc1)N1CCC(N2CCCC2)CC1 [IKK-16 (IKK Inhibitor VII)] | 0.762 | 0.439 | 0.482 | 0.224 | 0.35 | 0.498 | 0.539 | 0.486 | 0.226 | 0.431 | 0.566 | 0.774 | 0.264 | 0.349 | 0.656 | 0.557 | 0.372 | 0.548 | 0.797 | 0.587
CNC(=O)Nc1ccc(-c2nc(N3CC4CCC(C3)O4)c3cnn(C4CCC5(CC4)OCCO5)c3n2)cc1 | -1.67 | -2.07 | -1.97 | -1.47 | -1.92 | -2.23 | -2 | -2.11 | -1.42 | -1.57 | -1.66 | -1.55 | -1.41 | -1.83 | -1.44 | -1.28 | -1.81 | -1.6 | -1.7 | -1.22
COCCOc1ccc2c(c1)ncn2-c1ccc2cccc(N3CCC(N)CC3)c2n1 | 0.438 | 0.28 | -0.0541 | 0.533 | 0.552 | -0.0589 | 0.541 | 0.278 | 0.294 | 0.715 | 0.572 | -0.241 | 0.761 | -0.666 | -0.135 | 0.656 | 0.261 | 1.89 | -0.178 | 0.582
CC1(COc2ccc3c(c2)ncn3-c2ccc3cccc(N4CCC(N)CC4)c3n2)COC1 | 1.07 | 0.47 | 0.355 | 0.952 | 0.717 | 0.382 | 0.726 | 0.482 | 0.507 | 0.629 | 0.452 | 0.292 | 0.294 | -0.396 | 0.612 | 0.857 | 0.336 | 2.1 | 0.378 | 0.932
CCn1c(-c2nonc2N)nc2c(C#CC(C)(C)O)ncc(OC[C@H]3CCCNC3)c21 | -1.66 | -1.28 | 0.784 | 0.485 | 0.689 | 0.0203 | 0.506 | -1.15 | 0.762 | 0.846 | 0.448 | -2.17 | -0.994 | 0.977 | 0.493 | -1.64 | 0.526 | -1.52 | 0.761 | -1.09
O=C(NC(NC(=S)Nc1ccc(F)c([N+](=O)[O-])c1)C(Cl)(Cl)Cl)C(c1ccccc1)c1ccccc1 (stereo not given) | 0.681 | 0.536 | 0.363 | 0.538 | 0.178 | 0.418 | 0.246 | 0.317 | 0.597 | 0.525 | -0.0715 | 0.455 | 0.667 | -0.434 | 0.718 | 0.669 | 0.159 | 0.933 | 0.735 | 0.832
COc1ccc2cc(-c3nc(-c4ccc([S+](C)[O-])cc4)[nH]c3-c3ccncc3)ccc2c1 (stereo not given) [Tie2 kinase inhibitor] | 1.23 | 0.528 | -1.01 | 0.593 | -0.402 | 0.6 | -0.717 | 0.721 | 0.768 | 0.833 | -0.656 | 0.847 | 0.991 | 0.511 | 0.984 | 0.718 | 0.586 | 1.33 | 0.883 | 1.47
C#Cc1cccc(Nc2ncnc3cc4c(cc23)OCCOCCOCCO4)c1 [Icotinib] | -0.346 | 0.647 | -0.46 | -0.95 | -0.342 | 0.312 | 0.361 | 0.382 | 0.51 | 0.727 | 0.234 | 0.754 | -0.479 | 0.51 | 0.423 | -0.469 | 0.264 | 0.206 | -0.385 | 0.478
C=CC(=O)Nc1cccc(Oc2nc(Nc3ccc(N4CCN(C)CC4)cc3)ncc2Cl)c1 | -1.03 | -0.308 | 0.639 | -1.99 | 0.772 | 0.509 | 0.928 | 0.181 | -1.48 | -1.27 | 0.493 | -1.24 | -1.81 | -0.21 | -1.25 | -2.43 | 0.547 | -0.906 | -0.962 | -1.28
COc1cc2ncc(-c3ccccc3)nc2cc1OC [Tyrphostin AG 1296] | 0.393 | 0.136 | 0.327 | 0.172 | 0.387 | 0.391 | 0.276 | 0.503 | 0.929 | 0.442 | 0.466 | 0.436 | 0.7 | -0.461 | 0.427 | 0.0716 | 0.333 | 0.23 | 0.237 | 0.776
COc1cc(Nc2nc3ccccc3nc2NS(=O)(=O)c2ccc(NC(=O)c3ccc(C)c(OC)c3)cc2)cc(OC)c1 | 0.165 | 0.536 | 0.523 | 0.429 | 0.76 | 0.48 | 0.509 | 0.773 | 0.696 | 0.687 | 0.169 | 0.491 | 0.822 | 0.39 | 0.411 | 0.47 | 0.522 | 0.39 | 0.132 | -0.0769
COc1cc2c(Oc3ccc(NC(=O)C4(C(=O)Nc5ccc(F)cc5)CC4)cc3F)ccnc2cc1OCCCN1CCOCC1 | -0.832 | 0.767 | 0.773 | 0.493 | 0.399 | 0.416 | 0.877 | -0.00111 | -1.04 | -1.7 | 0.657 | 0.439 | -1.35 | -0.301 | -0.43 | -0.445 | 0.601 | -1.63 | -0.69 | -1.36
NC(=O)c1cccc(-c2cc(Nc3ccc(OC(F)(F)F)cc3)ncn2)c1 | -0.775 | 0.85 | 0.302 | 0.64 | 0.437 | 0.0162 | 0.0943 | 0.722 | 0.302 | 0.0909 | 0.351 | 0.68 | -0.0185 | 0.323 | -0.0669 | -0.0354 | 0.201 | -0.43 | -0.779 | -0.758
C=CC(=O)Nc1cccc(Nc2nc(Nc3ccc(NC4CN(CCF)C4)cc3OC)ncc2C(F)(F)F)c1 | 0.0799 | 0.418 | -0.598 | -1.28 | -0.482 | 0.605 | 0.594 | 0.511 | 0.255 | 0.364 | 0.000711 | -0.84 | -0.887 | 0.625 | -0.319 | -0.39 | 0.46 | 0.207 | -0.463 | 0.293
CC(=O)Nc1cccc(-n2c(=O)n(C3CC3)c(=O)c3c(Nc4ccc(I)cc4F)n(C)c(=O)c(C)c32)c1 | -0.0485 | -0.743 | -1.43 | -1.01 | -0.601 | -0.305 | -0.585 | -0.641 | -1.31 | -1.13 | -1.18 | -0.799 | -1.29 | 0.727 | -0.39 | -1.87 | -0.148 | 0.00168 | -1.58 | -1.02
